{"source": "PubChem BioAssay AID1508642", "about": "(National Center for Advancing Translational Sciences (NCATS), 2021)", "note": "About 200 (0.47%) of roughly 43,000 compounds were called active. About 12% were inconclusive and are not listed. The call rests on the fitted dose curve; in most records, active means well fitted cell-killing curve with a large enough effect; inconclusive means small, poorly fitted or top-dose-only effect, or effect the other way; inactive means flat fitted curve, though single readings scatter. This is one part of the list. On the % scale 0 is the no-effect control and ±100 the full control effect."}
{"assay": "Cell viability qHTS assay in S16 Pmp22-F2sN cells; further: nearly all actives have a fitted effect of over 65% in size", "details": "S16 Pmp22-F2sN Schwann cells (luciferase reporters placed in the Pmp22 gene) viability, CellTiter-Glo, 24 h; series mostly up to 57.5 µM; activity change, negative = cytotoxicity: at the top concentration", "summary_of_the_method": "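Luminescence from CellTiter-Glo, read by CCD camera after a 15 min room-temperature incubation, served as the viability signal. Reporter Schwann cells (S16 Pmp22-F2sN) had been treated with pin-transferred compounds for 24 h at 37C.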"}
{"smiles": "Cn1c(=O)c2c(nc(N3CCOCC3)n2Cc2cccc(Br)c2)n(C)c1=O", "activity change, negative = cytotoxicity": "inactive: -11.3%"}
{"smiles": "Cc1ccccc1CNC(=O)Cc1ccc(NC(=O)N2CCCCc3ccccc32)cc1", "activity change, negative = cytotoxicity": "inactive: -20.3%"}
{"smiles": "COc1ccc(N2CCN(C(CNC(=O)C(=O)NCc3cccnc3)c3cccnc3)CC2)cc1", "note": "(stereo not given)", "activity change, negative = cytotoxicity": "inactive: -11%"}
{"smiles": "CCOc1ccc(NC(=O)C2CCN(c3nnc(C)c4c(C)n(-c5ccccc5)nc34)CC2)cc1", "activity change, negative = cytotoxicity": "inactive: 9.67%"}
{"smiles": "Cc1ccc(NC(=O)CSc2nc3c([nH]c4ccccc43)c(=O)n2-c2ccccc2)cc1Cl", "activity change, negative = cytotoxicity": "inactive: -17.5%"}
{"smiles": "Cc1ccc(-c2[nH]c3c(c2-c2c(-n4cccc4)n(C)c(=O)[nH]c2=O)c(=O)[nH]c(=O)n3C)cc1", "activity change, negative = cytotoxicity": "inactive: 11.1%"}
{"smiles": "CCOC(=O)c1c(C)oc2nc(C)nc(N3CCN(c4ccccc4F)CC3)c12", "activity change, negative = cytotoxicity": "inactive: -1.29%"}
{"smiles": "COc1ccccc1CNC(=O)C(C)n1ccc2cc(S(=O)(=O)N3CCCC3)ccc21", "note": "(stereo not given)", "activity change, negative = cytotoxicity": "inactive: -28.8%"}
{"smiles": "COc1ccc(CNC(=O)c2ccc3nc(CCc4ccccc4)oc3c2)cc1", "activity change, negative = cytotoxicity": "inactive: 14.7%"}
{"smiles": "CCN(c1ccccc1)S(=O)(=O)c1cc(Br)cc2c1N(C(=O)C1CC1)CC2", "activity change, negative = cytotoxicity": "inactive: 4.27%"}
{"smiles": "Cc1ccc(C(=O)N2CCc3cc(CNC(=O)CSc4ccccc4)ccc32)cc1", "activity change, negative = cytotoxicity": "inactive: -28%"}
{"smiles": "CCCNC(=O)C1=CC(c2ccc3c(c2)OCO3)=NS(=O)(=O)N1C", "activity change, negative = cytotoxicity": "inactive: -0.916%"}
{"smiles": "COc1cc(OC)c(OC)cc1CN1CCc2nc(Nc3ccc4c(c3)OCCO4)ncc2C1", "activity change, negative = cytotoxicity": "inactive: 2.64%"}
{"smiles": "COc1ccc(CNC(=O)C(=O)Nc2c3c(nn2-c2ccccc2)CSC3)cc1", "activity change, negative = cytotoxicity": "inactive: -7.26%"}
{"smiles": "N#Cc1ccc(S(=O)(=O)N2CCC(Oc3cccc(C(F)(F)F)c3)CC2)cc1", "activity change, negative = cytotoxicity": "inactive: 11.8%"}
{"smiles": "O=C(NCc1cccs1)c1nn(-c2ccccc2Cl)nc1CO", "activity change, negative = cytotoxicity": "inactive: 0.723%"}
{"smiles": "COCCCNc1nc2c(S(=O)(=O)c3ccccc3)nnn2c2ccc(Cl)cc12", "activity change, negative = cytotoxicity": "inactive: -17.5%"}
{"smiles": "CC1=C(C(=O)Nc2ccccc2)C(c2ccccc2C)n2nc(SCC(=O)c3ccc(C)cc3)nc2N1", "note": "(stereo not given)", "activity change, negative = cytotoxicity": "inactive: -1.53%"}
{"smiles": "Cc1[nH]n(-c2ccccc2)c(=O)c1C(c1cc(Cl)ccc1O)c1c(C)[nH]n(-c2ccccc2)c1=O", "activity change, negative = cytotoxicity": "inactive: -1.19%"}
{"smiles": "CCN(c1cccc(C)c1)S(=O)(=O)c1ccc(-n2cccn2)cc1", "activity change, negative = cytotoxicity": "inactive: 0.518%"}
{"smiles": "CCc1ccc(NC(=O)CCS(=O)(=O)c2cc3c(cc2Cl)NC(=O)CO3)cc1", "activity change, negative = cytotoxicity": "inactive: 7.07%"}
{"smiles": "O=C(NCCc1csc(-c2ccc(C(F)(F)F)cc2)n1)c1ccc(F)c(F)c1", "activity change, negative = cytotoxicity": "inactive: 4.75%"}
{"smiles": "CCOc1ccc(-c2cc(CCCC(=O)NCCc3ccc(Cl)cc3)no2)cc1", "activity change, negative = cytotoxicity": "inactive: 8.1%"}
{"smiles": "COC(=O)c1c(-c2cccs2)csc1NC(=O)c1ccc(Br)cc1", "activity change, negative = cytotoxicity": "inactive: 1.48%"}
{"smiles": "COC(=O)c1c(-c2cccs2)csc1NC(=O)c1cccc(Cl)c1", "activity change, negative = cytotoxicity": "inactive: -1.32%"}
{"smiles": "Cc1cccc(NC(=O)CSc2nc(-c3cccs3)cc(C(F)(F)F)c2C#N)c1C", "activity change, negative = cytotoxicity": "inactive: -1.5%"}
{"smiles": "CCn1c(CN2CCOCC2)nc2cc(NC(=O)c3ccccc3[N+](=O)[O-])ccc21", "activity change, negative = cytotoxicity": "inactive: 2.85%"}
{"smiles": "CC(C)Oc1ccc(CNC(=O)c2ccc(CS(=O)c3cccc(Cl)c3)o2)cc1", "note": "(stereo not given)", "activity change, negative = cytotoxicity": "inactive: -28.9%"}
{"smiles": "COc1ccccc1N1CCN(C(=O)Cn2ncc3ccsc3c2=O)CC1", "activity change, negative = cytotoxicity": "inactive: 1.71%"}
{"smiles": "COc1cccc(-n2cc(C(=O)Nc3cccc(C(F)(F)F)c3)c3ccccc3c2=O)c1", "activity change, negative = cytotoxicity": "inactive: 3.44%"}
{"smiles": "Cc1ccc(NC(=O)N2CCc3cc(S(=O)(=O)N4CCC(C)CC4)ccc32)cc1", "activity change, negative = cytotoxicity": "inactive: 3.73%"}
{"smiles": "CCN(C(=O)Cn1c(=O)n(CCCS(=O)(=O)C2CCCCC2)c(=O)c2ccccc21)c1cccc(C)c1", "activity change, negative = cytotoxicity": "inactive: -5.54%"}
{"smiles": "CN(C)C1(CNC(=O)COc2ccc([N+](=O)[O-])cc2)CCCCC1", "activity change, negative = cytotoxicity": "inactive: -5.11%"}
{"smiles": "CCC1CN(C(=O)N2CCC(C(=O)NCCc3cc(OC)ccc3OC)CC2)c2ccccc2O1", "note": "(stereo not given)", "activity change, negative = cytotoxicity": "inactive: -0.879%"}
{"smiles": "Cc1ccc(Cl)cc1Nc1nn2c(=O)c3ccc(C(=O)Nc4ccc(F)cc4)cc3nc2s1", "activity change, negative = cytotoxicity": "inactive: 2.09%"}
{"smiles": "Cc1cc(Cl)ccc1NC(=O)Cn1nc(C)c2c(C)n(-c3ccccc3)nc2c1=O", "activity change, negative = cytotoxicity": "inactive: -2.32%"}
{"smiles": "CC1CCN(C(=O)Cn2c(=O)n(CCCCCC(=O)NCc3ccccc3Cl)c(=O)c3sccc32)CC1", "activity change, negative = cytotoxicity": "inactive: -7.89%"}
{"smiles": "CC(=O)Nc1cc(-c2nc3cc(Cl)ccc3o2)ccc1C", "activity change, negative = cytotoxicity": "inactive: 4.78%"}
{"smiles": "COc1ccccc1CNC(=O)CCC1N=C2c3ccccc3N=C(SCC(=O)Nc3ccc(F)cc3)N2C1=O", "note": "(stereo not given)", "activity change, negative = cytotoxicity": "inactive: -13.1%"}
{"smiles": "Cc1ccc2c(c1)c1c(c(=O)n(-c3cccc(Cl)c3)c(=O)n1CC(=O)NCCC1=CCCCC1)n2C", "activity change, negative = cytotoxicity": "inactive: 12.3%"}
{"smiles": "COc1ccc(CNc2nc(-c3ccccc3)nn2S(=O)(=O)c2ccccc2)cc1", "activity change, negative = cytotoxicity": "inactive: 9.11%"}
{"smiles": "COc1cccc(C2c3c(oc4cc(C)cc(C)c4c3=O)C(=O)N2CCc2ccc(OC)c(OC)c2)c1", "note": "(stereo not given)", "activity change, negative = cytotoxicity": "inactive: 1.08%"}
{"smiles": "CCOC(=O)C1CCC(CN(Cc2ccc(OC)cc2)S(=O)(=O)c2ccc(F)c(C(=O)Nc3ccc(C)c(C)c3)c2)CC1", "note": "(stereo not given)", "activity change, negative = cytotoxicity": "inactive: -3.29%"}
{"smiles": "CCc1ccc(NS(=O)(=O)c2ccc3oc(=O)c4ncn(CC)c4c3c2)cc1", "activity change, negative = cytotoxicity": "inactive: -16.2%"}
{"smiles": "COc1ccc(-n2c(Cc3ccccc3)nnc2SCc2nc(-c3cccs3)no2)cc1", "activity change, negative = cytotoxicity": "inactive: -13.1%"}
{"smiles": "O=c1cc(CSc2ncn[nH]2)[nH]c2ccc(F)cc12", "activity change, negative = cytotoxicity": "inactive: 0.415%"}
{"smiles": "O=C(Nc1nnc(-c2cc(Cl)ccc2Cl)o1)c1ccc2c(c1)OCCO2", "activity change, negative = cytotoxicity": "inactive: 5.6%"}
{"smiles": "Cc1cc(=O)n(Cc2c(F)cccc2Cl)c2c1c(C)nn2-c1cccc(F)c1", "activity change, negative = cytotoxicity": "inactive: -18.4%"}
{"smiles": "O=C(Cc1ccc(Cl)cc1)NCC(c1cccs1)S(=O)(=O)c1ccccc1", "note": "(stereo not given)", "activity change, negative = cytotoxicity": "inactive: -5.77%"}
{"smiles": "CCCSc1ncc(Cl)c(C(=O)Nc2sc(C(C)=O)c(C)c2C(=O)OCC)n1", "activity change, negative = cytotoxicity": "inactive: 21.1%"}
{"smiles": "Cc1ccc(S(=O)(=O)N(CC(=O)Nc2ccc(F)cc2F)Cc2ccc(F)cc2)cc1", "activity change, negative = cytotoxicity": "inactive: 2.02%"}
{"smiles": "CCn1ccc2c(OCC(=O)Nc3ccc(C)c(Cl)c3)cccc2c1=O", "activity change, negative = cytotoxicity": "inactive: -24.7%"}
{"smiles": "COc1cccc(N2CCN(C(=O)CCSCc3ccccc3F)CC2)c1", "activity change, negative = cytotoxicity": "inactive: 6.53%"}
{"smiles": "Cc1cccc(C(=O)Nc2c(C(=O)N3CCN(c4ccc(F)cc4)CC3)oc3ccccc23)c1", "activity change, negative = cytotoxicity": "inactive: 3.59%"}
{"smiles": "CCOC(=O)C1CCN(S(=O)(=O)c2cc3c4c(c2)C(C)C(=O)N4CCC3)CC1", "note": "(stereo not given)", "activity change, negative = cytotoxicity": "inactive: 8.81%"}
{"smiles": "Cc1c(CNC(C)CCc2ccccc2)c(C(=O)O)c(C)n1Cc1ccc(F)cc1", "note": "(stereo not given)", "activity change, negative = cytotoxicity": "inactive: -0.403%"}
{"smiles": "Cc1onc(-c2ccccc2Cl)c1C(=O)Oc1ccccc1F", "activity change, negative = cytotoxicity": "inactive: 4.83%"}
{"smiles": "CC(C)(C)OC(=O)N1CCC(N2CCN(Cc3ccccc3)C(=O)C2=O)CC1", "activity change, negative = cytotoxicity": "inactive: 19.4%"}
{"smiles": "CCOC(=O)c1ccccc1NC(=O)NCc1c(-n2cccc2)sc2c1CCCC2", "activity change, negative = cytotoxicity": "inactive: 2.74%"}
{"smiles": "CCOc1ccc(NC(=O)C(CC(C)C)N2Cc3ccccc3C2=O)cc1", "note": "(stereo not given)", "activity change, negative = cytotoxicity": "inactive: -3.77%"}
